Reference: the antibiotic and cytotoxicity screens of Wong et al. (2023)
The other results are listed elsewhere or left out.

Each compound was assayed on HSkMC (human skeletal muscle cells) (assay: cytotoxicity call (relative viability < 0.9)). Settings: 10 µM.

Row | SMILES | cytotoxicity call
1 | COCC#Cc1ccc2c(c1)O[C@@H](CN(C)C(=O)CN(C)C)[C@@H](C)CN([C@H](C)CO)S2(=O)=O | inactive
2 | CCCCCC(=O)Cc1cc(O)cc(O)c1C(=O)Oc1cc(CC(=O)CCCCC)c(C(=O)O)c(OC)c1 | inactive
3 | C[C@@H]1CN([C@@H](C)CO)C(=O)c2cc(NC(=O)NC3CCCCC3)ccc2O[C@@H]1CN(C)Cc1ccc(Oc2ccccc2)cc1 | inactive
4 | Cc1ccc(S(=O)(=O)N(C)C[C@@H]2Oc3c(NS(=O)(=O)c4c(C)noc4C)cccc3C(=O)N([C@@H](C)CO)C[C@@H]2C)cc1 | inactive
5 | O=C(Cc1ccncc1)Nc1ccc2c(c1)[C@@H]1C[C@@H](CC(=O)N3CCc4ccccc4C3)O[C@H](CO)[C@@H]1O2 | inactive
6 | C[C@@H]1CN([C@@H](C)CO)C(=O)c2cccc(NC(=O)C3CCOCC3)c2O[C@H]1CN(C)Cc1ccncc1 | inactive
7 | Clc1ccc(COC(Cn2ccnc2)c2ccc(Cl)cc2Cl)c(Cl)c1.O=[N+]([O-])O (stereo not drawn) | inactive
8 | C[C@@H]1CN([C@@H](C)CO)C(=O)c2cccc(NC(=O)C3CCCCC3)c2O[C@H]1CN(C)S(=O)(=O)c1cn(C)cn1 | inactive
9 | C[C@H](CO)N1C[C@H](C)[C@H](CN(C)S(=O)(=O)c2cn(C)cn2)Oc2ccc(NC(=O)Cn3cnnn3)cc2C1=O | inactive
10 | O=C(O)C[C@@H](C(=O)O)[C@H](O)c1ccccc1 | inactive
11 | Cc1noc(C)c1NC(=O)Nc1ccc2c(c1)C(=O)N([C@@H](C)CO)C[C@H](C)[C@H](CN(C)Cc1ccc3c(c1)OCO3)OCCCC[C@H](C)O2 | inactive
12 | CC(C)c1ccccc1Cc1cc(C(=O)Nc2ccc(S(=O)(=O)c3ccccc3C(C)(C)C)cc2)c(O)c(O)c1O | active
13 | CCCC#Cc1cnc2c(c1)C(=O)N([C@@H](C)CO)C[C@@H](C)[C@@H](CN(C)S(=O)(=O)c1cccc(OC)c1)O2 | inactive
14 | CC(=O)Nc1cc(Cl)ccc1C | inactive
15 | CC(C)NC(=O)N(C)C[C@@H]1OCCCC[C@@H](C)Oc2ccc(NC(=O)Nc3ccc(C(F)(F)F)cc3)cc2C(=O)N([C@@H](C)CO)C[C@@H]1C | inactive
16 | C[C@@H]1CN([C@@H](C)CO)C(=O)c2cccc(NS(=O)(=O)c3ccc(F)cc3)c2O[C@@H]1CN(C)Cc1ccc(-c2ccccc2)cc1 | inactive
17 | CC(=CCC1=C(C)C(=O)c2ccccc2C1=O)CCCC(C)CCCC(C)CCCC(C)C (stereo not drawn) | inactive
18 | COc1ccc(C#Cc2ccc3c(c2)O[C@H](CN(C)C(=O)c2ccccn2)[C@@H](C)CN([C@H](C)CO)S3(=O)=O)cc1 | inactive
19 | Cc1ccccc1S(=O)(=O)N1[C@@H]2c3cccc(=O)n3C[C@H]1[C@H](CO)[C@H]2C(=O)N1CCOCC1 | inactive
20 | COc1cccc(NC(=O)N2C[C@@H](O)COC[C@H]3O[C@@H](CC(=O)NC4Cc5ccccc5C4)CC[C@@H]32)c1 | inactive
21 | N=C(N)NS(=O)(=O)c1ccc(N)cc1 | inactive
22 | C[C@H](CO)N1C[C@H](C)[C@H](CN(C)Cc2ccc(Oc3ccccc3)cc2)Oc2ccc(NC(=O)Cn3cnnn3)cc2C1=O | inactive
23 | C[C@H](CO)N1C[C@H](C)[C@H](CN(C)C(=O)Nc2ccc(F)cc2)OCc2ccccc2-c2ccccc2C1=O | inactive
24 | COc1ccc(S(=O)(=O)Nc2cccc3c2O[C@@H](CN(C)C(=O)NC(C)C)[C@H](C)CN([C@@H](C)CO)C3=O)cc1 | inactive
25 | C[C@H](CO)N1C[C@H](C)[C@@H](CN(C)Cc2ccc(C(=O)O)cc2)OCCCC[C@H](C)Oc2ccc(NC(=O)Nc3ccccc3)cc2C1=O | inactive
26 | O=C(C[C@@H]1CC[C@H]2[C@@H](COC[C@@H](O)CN2S(=O)(=O)c2ccccc2)O1)NCCN1CCCCC1 | inactive
27 | Cc1noc(C)c1NC(=O)N(C)C[C@H]1OCCCC[C@H](C)Oc2ccc(NS(=O)(=O)c3ccc(F)cc3)cc2C(=O)N([C@@H](C)CO)C[C@@H]1C | inactive
28 | c1coc(-c2nc3ccccc3n2CCC2CCCCC2)c1 | inactive

The compounds below were run on HepG2 (assay: cytotoxicity call (relative viability < 0.9)). Settings: 10 µM.

Row | SMILES | cytotoxicity call
29 | CO[C@@H]1CN(C)C(=O)c2cc(NS(=O)(=O)c3cn(C)cn3)ccc2OC[C@H](C)N(CCC(F)(F)F)C[C@H]1C | inactive
30 | CNC(=O)c1cnc2n1CCN(Cc1nccn1C)C2 | inactive
31 | Cc1noc(C)c1S(=O)(=O)Nc1ccc2c(c1)C(=O)N([C@H](C)CO)C[C@@H](C)[C@@H](CN(C)C)OCCCC[C@@H](C)O2 | inactive
32 | C[C@@H]1CN([C@@H](C)CO)S(=O)(=O)c2ccc(-c3cccnc3)cc2O[C@H]1CN(C)CC1CCOCC1 | inactive
33 | Cc1cc(C)n(C)c(=O)c1C(=O)O | inactive
34 | Cc1noc(C)c1NC(=O)N(C)C[C@H]1OCCCC[C@H](C)Oc2ccc(NS(=O)(=O)c3cccs3)cc2C(=O)N([C@H](C)CO)C[C@@H]1C | inactive
35 | COc1ccc(NC(=O)Nc2ccc3c(c2)C(=O)N([C@H](C)CO)C[C@H](C)[C@@H](CN(C)Cc2ccc(C(F)(F)F)cc2)O3)cc1 | inactive
36 | COc1ccc2c3c(n(c2c1)C)[C@H](CO)N(CC1CCOCC1)C[C@]13CCN(CC1)C(=O)Cc1cccnc1 | inactive
37 | COc1ccc(C#Cc2ccc3c(c2)O[C@H](CN(C)S(=O)(=O)c2ccccc2F)[C@@H](C)CN([C@H](C)CO)S3(=O)=O)cc1 | inactive
38 | O=C(O)CNC(=O)c1ccc(S(=O)(=O)N2CCOCC2)cc1 | inactive
39 | O=C(C[C@H]1C[C@H]2c3cc(NC(=O)c4ccc5c(c4)OCO5)ccc3O[C@H]2[C@@H](CO)O1)NCc1ccc(Oc2ccccc2)cc1 | active
40 | C[C@@H]1CN([C@H](C)CO)C(=O)c2cc(NC(=O)Nc3ccc(F)cc3)ccc2O[C@@H]1CN(C)Cc1ccc(Cl)c(Cl)c1 | inactive
41 | COCC#Cc1ccc2c(c1)O[C@@H](CN(C)C(=O)CN(C)C)[C@@H](C)CN([C@H](C)CO)S2(=O)=O | inactive
42 | CCCCCC(=O)Cc1cc(O)cc(O)c1C(=O)Oc1cc(CC(=O)CCCCC)c(C(=O)O)c(OC)c1 | inactive
43 | C[C@@H]1CN([C@@H](C)CO)C(=O)c2cc(NC(=O)NC3CCCCC3)ccc2O[C@@H]1CN(C)Cc1ccc(Oc2ccccc2)cc1 | active
44 | Cc1ccc(S(=O)(=O)N(C)C[C@@H]2Oc3c(NS(=O)(=O)c4c(C)noc4C)cccc3C(=O)N([C@@H](C)CO)C[C@@H]2C)cc1 | inactive
45 | O=C(Cc1ccncc1)Nc1ccc2c(c1)[C@@H]1C[C@@H](CC(=O)N3CCc4ccccc4C3)O[C@H](CO)[C@@H]1O2 | inactive
46 | C[C@@H]1CN([C@@H](C)CO)C(=O)c2cccc(NC(=O)C3CCOCC3)c2O[C@H]1CN(C)Cc1ccncc1 | inactive
47 | Clc1ccc(COC(Cn2ccnc2)c2ccc(Cl)cc2Cl)c(Cl)c1.O=[N+]([O-])O (stereo not drawn) | inactive
48 | C[C@@H]1CN([C@@H](C)CO)C(=O)c2cccc(NC(=O)C3CCCCC3)c2O[C@H]1CN(C)S(=O)(=O)c1cn(C)cn1 | inactive

Row | SMILES | cytotoxicity call
49 | C[C@H](CO)N1C[C@H](C)[C@H](CN(C)S(=O)(=O)c2cn(C)cn2)Oc2ccc(NC(=O)Cn3cnnn3)cc2C1=O | inactive
50 | O=C(O)C[C@@H](C(=O)O)[C@H](O)c1ccccc1 | inactive
51 | Cc1noc(C)c1NC(=O)Nc1ccc2c(c1)C(=O)N([C@@H](C)CO)C[C@H](C)[C@H](CN(C)Cc1ccc3c(c1)OCO3)OCCCC[C@H](C)O2 | inactive
52 | CC(C)c1ccccc1Cc1cc(C(=O)Nc2ccc(S(=O)(=O)c3ccccc3C(C)(C)C)cc2)c(O)c(O)c1O | active
53 | CCCC#Cc1cnc2c(c1)C(=O)N([C@@H](C)CO)C[C@@H](C)[C@@H](CN(C)S(=O)(=O)c1cccc(OC)c1)O2 | inactive
54 | CC(=O)Nc1cc(Cl)ccc1C | inactive
55 | CC(C)NC(=O)N(C)C[C@@H]1OCCCC[C@@H](C)Oc2ccc(NC(=O)Nc3ccc(C(F)(F)F)cc3)cc2C(=O)N([C@@H](C)CO)C[C@@H]1C | inactive
56 | C[C@@H]1CN([C@@H](C)CO)C(=O)c2cccc(NS(=O)(=O)c3ccc(F)cc3)c2O[C@@H]1CN(C)Cc1ccc(-c2ccccc2)cc1 | active
57 | CC(=CCC1=C(C)C(=O)c2ccccc2C1=O)CCCC(C)CCCC(C)CCCC(C)C (stereo not drawn) | inactive
58 | COc1ccc(C#Cc2ccc3c(c2)O[C@H](CN(C)C(=O)c2ccccn2)[C@@H](C)CN([C@H](C)CO)S3(=O)=O)cc1 | inactive
59 | Cc1ccccc1S(=O)(=O)N1[C@@H]2c3cccc(=O)n3C[C@H]1[C@H](CO)[C@H]2C(=O)N1CCOCC1 | inactive
60 | COc1cccc(NC(=O)N2C[C@@H](O)COC[C@H]3O[C@@H](CC(=O)NC4Cc5ccccc5C4)CC[C@@H]32)c1 | inactive
61 | N=C(N)NS(=O)(=O)c1ccc(N)cc1 | inactive
62 | C[C@H](CO)N1C[C@H](C)[C@H](CN(C)Cc2ccc(Oc3ccccc3)cc2)Oc2ccc(NC(=O)Cn3cnnn3)cc2C1=O | inactive
63 | C[C@H](CO)N1C[C@H](C)[C@H](CN(C)C(=O)Nc2ccc(F)cc2)OCc2ccccc2-c2ccccc2C1=O | inactive
64 | COc1ccc(S(=O)(=O)Nc2cccc3c2O[C@@H](CN(C)C(=O)NC(C)C)[C@H](C)CN([C@@H](C)CO)C3=O)cc1 | inactive
65 | C[C@H](CO)N1C[C@H](C)[C@@H](CN(C)Cc2ccc(C(=O)O)cc2)OCCCC[C@H](C)Oc2ccc(NC(=O)Nc3ccccc3)cc2C1=O | inactive
66 | O=C(C[C@@H]1CC[C@H]2[C@@H](COC[C@@H](O)CN2S(=O)(=O)c2ccccc2)O1)NCCN1CCCCC1 | inactive
67 | Cc1noc(C)c1NC(=O)N(C)C[C@H]1OCCCC[C@H](C)Oc2ccc(NS(=O)(=O)c3ccc(F)cc3)cc2C(=O)N([C@@H](C)CO)C[C@@H]1C | inactive
68 | c1coc(-c2nc3ccccc3n2CCC2CCCCC2)c1 | inactive
